Measured values reported in the supplement of paper PMC3334620.
The full ranking holds about 33,000 sequences; the median of “E-score (-0.5 to 0.5)” is about -0.041, and the highest 2% start at about 0.37. The list shows a part of the results.

biological target: T1, Ecm22 (UniProt Q05958); test: PBM E-score (8-mer binding enrichment) (E-score (-0.5 to 0.5)); higher = stronger / more preferred TF binding; most listed sequences are background and not binding sites; details: protein concentration: 200 nM; construct: GST-full length
T1 sequence: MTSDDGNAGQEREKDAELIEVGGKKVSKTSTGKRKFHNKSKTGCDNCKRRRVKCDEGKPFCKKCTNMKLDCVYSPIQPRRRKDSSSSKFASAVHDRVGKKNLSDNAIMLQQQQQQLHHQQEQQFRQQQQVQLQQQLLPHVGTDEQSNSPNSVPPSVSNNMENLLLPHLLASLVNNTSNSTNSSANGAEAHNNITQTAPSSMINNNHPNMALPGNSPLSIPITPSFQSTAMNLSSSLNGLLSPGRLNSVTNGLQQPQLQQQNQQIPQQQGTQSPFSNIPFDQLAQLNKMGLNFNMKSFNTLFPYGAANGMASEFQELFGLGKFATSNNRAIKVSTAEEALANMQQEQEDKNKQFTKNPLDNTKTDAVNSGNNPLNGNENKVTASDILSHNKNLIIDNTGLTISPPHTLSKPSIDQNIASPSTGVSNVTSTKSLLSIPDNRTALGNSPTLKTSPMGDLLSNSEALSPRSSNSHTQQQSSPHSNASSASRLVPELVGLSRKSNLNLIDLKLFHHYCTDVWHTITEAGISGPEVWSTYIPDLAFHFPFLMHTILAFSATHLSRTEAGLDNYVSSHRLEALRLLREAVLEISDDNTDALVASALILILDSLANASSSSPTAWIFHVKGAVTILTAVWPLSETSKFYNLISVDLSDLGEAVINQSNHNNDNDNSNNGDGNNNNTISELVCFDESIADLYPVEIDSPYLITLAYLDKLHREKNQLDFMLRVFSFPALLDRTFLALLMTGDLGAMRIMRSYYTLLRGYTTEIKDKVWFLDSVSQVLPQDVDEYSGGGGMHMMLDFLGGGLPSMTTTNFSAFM
Procedure: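 Universal 'all 10-mer' protein binding microarrays (Agilent AMADID 015681) probed with GST-tagged S. cerevisiae TFs (full-length or DBD) made by in vitro transcription/translation (PURExpress), about 100-200 nM. Bound TF was detected with fluorescent anti-GST. Each ungapped 8-mer (which stands for itself and its reverse complement) is scored by the PBM enrichment score (E-score), a modified Wilcoxon-Mann-Whitney statistic from -0.5 to +0.5, computed with the Universal PBM Analysis Suite. Scale: above 0.35 generally sequence-specific binding.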

| Sequence | PBM E-score |
| --- | --- |
| CTATAGAC | -0.141 |
| CGACGAAG | 0.247 |
| GGTTTGCA | 0.157 |
| AGCTTGGG | -0.0421 |
| ACTACCTA | -0.0511 |
| GAAATGAA | 0.161 |
| CAGAATGA | -0.0254 |
| ATCCTTGC | -0.167 |
| AACCATTG | -0.0764 |
| AATTACCC | -0.0882 |
| CCAAAGCA | -0.196 |
| CCAGAACC | -0.088 |
| CACGGGGC | -0.188 |
| CGCCGTGA | -0.142 |
| AGAGGTCA | -0.166 |
| CACGCGTC | 0.069 |
| GGGTAACA | -0.012 |
| ATATAATA | -0.00075 |
| CGCCATGC | -0.137 |
| ATCACTTC | -0.0396 |
| AGACCCTC | -0.206 |
| CCCTTAAC | -0.118 |

| Sequence | PBM E-score |
| --- | --- |
| GGGGGACA | -0.0351 |
| CGCCTTAA | 0.117 |
| CGTGGAAG | -0.0408 |
| CATTCACG | 0.0618 |
| GGTGTGGA | 0.0381 |
| GGACCTAA | 0.149 |
| CAGTAACC | -0.0532 |
| CTTCTGGC | -0.199 |
| AACTTTGT | -0.164 |
| GGTTATCA | -0.134 |
| ATTCCCCA | -0.0894 |
| CACGGGCA | -0.18 |
| CCTGGACA | -0.215 |
| GTGGTGAA | -0.133 |
| TGCAACCA | 0.0663 |
| CCTAGTAC | 0.0215 |
| CTGCACCA | -0.137 |
| CCAGGCAA | -0.169 |
| CTTTTGTA | 0.125 |
| AGCGAGAC | 0.193 |
| CTCATGCC | -0.129 |
| ACGACGGG | 0.393 |

| Sequence | PBM E-score |
| --- | --- |
| ACGTGCAT | -0.0369 |
| CTAGCACA | -0.324 |
| ACTTCCCC | -0.324 |
| TTCGACAA | 0.0503 |
| CGAGTAAC | 0.334 |
| CCCCAACG | -0.168 |
| GCTGCGGA | -0.167 |
| GGACCCTA | -0.183 |
| GTGTATCA | -0.0197 |
| ACAACAAG | 0.0901 |
| CAGCACAC | -0.218 |
| AAGTTAGG | -0.0797 |
| AGTGTCAG | -0.0807 |
| ACTCCATC | -0.264 |
| ACTCGTCA | 0.0424 |
| CTTAGGGA | -0.27 |
| GGAGGGCA | -0.218 |
| CGGTCTAG | 0.211 |
| AAAATACG | 0.372 |
| CAATTTCA | -0.16 |
| ATTAACCG | 0.277 |
| CAGTACTG | -0.0227 |

| Sequence | PBM E-score |
| --- | --- |
| ATGGATGC | -0.105 |
| GACTCTAC | 0.0581 |
| TACTGGAA | -0.0395 |
| ACTAGGGC | -0.385 |
| AAGGGGGG | -0.257 |
| CGCCGCCG | -0.0595 |
| ATCCAAAG | -0.094 |
| CACAGCGC | -0.215 |
| GTCCTAAC | -0.196 |
| CAATCGTA | 0.389 |
| CAGGGTCG | -0.00935 |
| CTCTTTTA | -0.0199 |
| AGGTTCCG | -0.0965 |
| AAAGATCC | -0.00107 |
| AGCCATAC | 0.2 |
| TGCACAAA | -0.22 |
| CCCGGATC | 0.0112 |
| CACTGCAC | -0.226 |
| AGTTCTTG | -0.0776 |
| CTTTTTAC | 0.128 |
